# Reference: the supplement of paper PMC11876631
# ± gives the standard deviation of the averaged measurements. Laboratory Escherichia coli strains with one amino-acid change in an essential protein, pooled on minimal glucose agar with carbenicillin or gentamicin at twice the control MIC (plus kanamycin and chloramphenicol for the plasmids), 48 h. Fold change of barcode share against drug-free plates; higher = less susceptible. Active = above 20 in both replicates (the paper's putatively resistant). '<' = one read or none on drug, '>' = one read or none on a drug-free plate. Shares are relative, so most strains fall below 1 when a few take over. Listed are strains with at least 15 reads on both drug-free plates, and hits; most hits rest on fewer reference reads. Replicate rank correlation about 0.5. Edits are read from barcodes.
# B1: nadB; numbered along this chain (parent)
# chain: MNTLPEHSCDVLIIGSGAAGLSLALRLADQHQVIVLSKGPVTEGSTFYAQGGIAAVFDETDSIDSHVEDTLIAGAGICDRHAVEFVASNARSCVQWLIDQGVLFDTHIQPNGEESYHLTREGGHSHRRILHAADATGREVETTLVSKALNHPNIRVLERSNAVDLIVSDKIGLPGTRRVVGAWVWNRNKETVETCHAKAVVLATGGASKVYQYTTNPDISSGDGIAMAWRAGCRVANLEFNQFHPTALYHPQARNFLLTEALRGEGAYLKRPDGTRFMPDFDERGELAPRDIVARAIDHEMKRLGADCMFLDISHKPADFIRQHFPMIYEKLLGLGIDLTQEPVPIVPAAHYTCGGVMVDDHGRTDVEGLYAIGEVSYTGLHGANRMASNSLLECLVYGWSAAEDITRRMPYAHDISTLPPWDESRVENPDERVVIQHNWHELRLFMWDYVGIVRTTKRLERALRRITMLQQEIDEYYAHFRVSNNLLELRNLVQVAELIVRCAMMRKESRGLHFTLDYPELLTHSGPSILSPGNHYINR
# B2: serS; numbered along this chain (parent)
# chain: MLDPNLLRNEPDAVAEKLARRGFKLDVDKLGALEERRKVLQVKTENLQAERNSRSKSIGQAKARGEDIEPLRLEVNKLGEELDAAKAELDALQAEIRDIALTIPNLPADEVPVGKDENDNVEVSRWGTPREFDFEVRDHVTLGEMHSGLDFAAAVKLTGSRFVVMKGQIARMHRALSQFMLDLHTEQHGYSENYVPYLVNQDTLYGTGQLPKFAGDLFHTRPLEEEADTSNYALIPTAEVPLTNLVRGEIIDEDDLPIKMTAHTPCFRSEAGSYGRDTRGLIRMHQFDKVEMVQIVRPEDSMAALEEMTGHAEKVLQLLGLPYRKIILCTGDMGFGACKTYDLEVWIPAQNTYREISSCSNVWDFQARRMQARCRSKSDKKTRLVHTLNGSGLAVGRTLVAVMENYQQADGRIEVPEVLRPYMNGLEYIG
# B3: pdxA; a variant is named by its letters at X, in order (parent)
# chain: MVKTQRVVITPGEPAGIGPDLXVQLAQREWPVEXXXCADATLLTNRAAMLGLPLTLRPYSPNSPAQPQTAGTLTLLPVALRAPVTAGQLAVENGHYVVETXARACDGCLNGEFAALITGPVHKGVINDAGIPFTGHTEFFEERSQAKKVVMXLATEELRVALATTHLPLRDIADAITPALLHEVIAILHHDLRTKFGIAEPRILVCGLNPHAGEGGHMGTEEIDTIIPVLNELRAQGMKLNGPLPADTLFQPKYLDNADAVLAMYHDQGLPVLKYQGFGRGVNITLGLPFIRTSVDHGTALELAGRGKADVGSFITALNLAIKMIVNTQ
# Variants of: B1
# Experiment: barcode share on antibiotic plates over drug-free plates; higher = less susceptible
# Conditions: with Escherichia coli (laboratory strain); antibiotic: carbenicillin; 2× MIC (3.1 µg/mL)
# Protocol: (§1)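 A pool of E. coli strains, each edited to carry one amino-acid change in an essential protein, was grown for 48 h on minimal glucose agar with or without antibiotic; strain barcodes were sequenced; mean of two replicates.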
row,Variant,fold change of barcode share
1,V180W,0.723 ± 0.11
2,V184W,0.463 ± 0.11
3,V184D,1.92 ± 1.4

# Same assay, conditions: with Escherichia coli (laboratory strain); antibiotic: gentamicin; 2× MIC (MIC 0.45 µg/mL)
row,Variant,fold change of barcode share
1,V180W,0.0164 ± 0.018
2,V184P,0.0461 ± 0.013
3,V184W,0.0287 ± 0.037
4,V184D,0.107 ± 0.14
5,V184A,< 0.0187

# Variants of: B2
# Experiment: as above
# Conditions: with Escherichia coli (laboratory strain); antibiotic: carbenicillin; 2× MIC (3.1 µg/mL)
# Protocol: as §1
row,Variant,fold change of barcode share
1,L181Q,0.283 ± 0.047
2,L319A,0.361 ± 0.12
3,L319Q,1.83 ± 0.58
4,W346A,0.301 ± 0.056
5,W346Q,0.472 ± 0.071
6,V385Q,0.627 ± 0.34
7,V385W,0.414 ± 0.4
8,V385A,0.143 ± 0.05
9,V385P,0.329 ± 0.013
10,I282W,0.4015 ± 0.0022
11,M165A,0.246 ± 0.11
12,M165Q,0.408 ± 0.26
13,I235A,0.493 ± 0.035
14,L318W,0.323 ± 0.11
15,L318Q,0.748 ± 0.45
16,L318P,0.614 ± 0.2
17,L318D,0.236 ± 0.087
18,L318A,0.257 ± 0.039
19,V164A,0.664 ± 0.11
20,V164Q,0.351 ± 0.16

# Same assay, conditions: with Escherichia coli (laboratory strain); antibiotic: gentamicin; 2× MIC (MIC 0.45 µg/mL)
row,Variant,fold change of barcode share
1,L181Q,0.694 ± 0.97
2,L319A,0.0253 ± 0.026
3,L319Q,< 0.0132
4,V385A,< 0.0146
5,V385P,< 0.00993
6,M165A,< 0.00357
7,M165Q,< 0.00462
8,I235A,0.0064 ± 0.0019
9,L318W,< 0.00975
10,L318Q,< 0.0138
11,L318P,< 0.0127
12,L318D,0.015 ± 0.0073
13,L318A,< 0.00781
14,V164A,0.0038 ± 0.0022
15,V164Q,0.27 ± 0.37

# Variants of: B3
# Experiment: as above
# Conditions: with Escherichia coli (laboratory strain); antibiotic: carbenicillin; 2× MIC (3.1 µg/mL)
# Protocol: as §1
row,Variant,fold change of barcode share
1,VLAVLM,0.34 ± 0.22
2,VLVVLM I226A,0.499 ± 0.027
3,VLVVLM I226Q,0.489 ± 0.26
4,QLVVLM,0.425 ± 0.2
5,VLVDLM,0.395 ± 0.13
6,VLPVLM,0.408 ± 0.063

# Same assay, conditions: with Escherichia coli (laboratory strain); antibiotic: gentamicin; 2× MIC (MIC 0.45 µg/mL)
row,Variant,fold change of barcode share
1,VLAVLM,0.0193 ± 0.011
2,VLVVLM I226A,0.0152 ± 0.015
3,VLVVLM I226Q,< 0.00903
4,QLVVLM,0.00629 ± 0.0024
5,VLVDLM,0.00936 ± 0.0096
6,VLPVLM,0.00852 ± 0.0065
